PubChem BioAssay AID463173 (ICCB-Longwood Screening Facility, Harvard Medical School, 2010)
About 1,700 (3.3%) of roughly 52,000 compounds were called active. Rule as the data show it: active = survival mostly below about 52% (no sharp cut-off); inactive = mostly above about 56%. Some of the results follow.

tested on: Wild type; test: growth inhibition of S. aureus wild type versus tarO mutant, primary screen, teichoic acid synthesis inhibitors, RN4220, OD600 (AID 463173); conditions: S. aureus RN4220 wild type/DeltatarO growth, OD600, 18 h, hits give low values, screened at 18.75 µg/mL (by protocol)

SMILES	survival
COCCCNC(=O)c1ccc2c(c1)N(Cc1ccccc1)C(=O)c1ccccc1S2	inactive: 75%
O=C(CSc1nc(=O)n(CCN2CCOCC2)c2c1CCC2)Nc1ccccc1	inactive: 83%
COc1ccc(C(=O)Nc2nnc(S(=O)(=O)N(CC(C)C)c3ccc(C)cc3)s2)cc1OC	inactive: 69%
CNC(=S)NC1CC2CCCC(C1)N2Cc1ccco1 (stereo not given)	inactive: 108%
O=C(Nc1ccc(S(=O)(=O)Nc2ncccn2)cc1)c1ccccc1Cl	inactive: 77%
Cc1ccc2c(c1)N(C(=O)CCC(=O)NCc1ccccc1Cl)CC(C)O2 (stereo not given)	inactive: 88%
O=C1S/C(=C/c2ccc3c(c2)OCO3)C(=O)N1CN1CCCCC1	inactive: 135%
O=C(Nc1cc(C(F)(F)F)ccc1Cl)c1cc(-c2ccc3c(c2)OCCO3)on1	inactive: 107%
COC(=O)c1cccnc1-n1c(=O)c2cccnc2n(CC(=O)Nc2ccc(C)cc2C)c1=O	inactive: 71%
CC(=O)c1ccc(NC(=O)COc2ccccc2-c2nc(-c3cccc(C)c3)no2)cc1	inactive: 86%
CC(NC(=O)Cn1c(=O)oc2cc(S(=O)(=O)NCc3ccccc3)ccc21)c1ccccc1 (stereo not given)	inactive: 91%
Cc1ccccc1Nc1nc(-c2cccc(Cl)c2)c2c(n1)-c1ccccc1OC2	inactive: 86%
COc1ccc(NC(=O)CSc2nnc(NC(=O)Nc3ccccc3)s2)cc1OC	inactive: 75%
COc1ccc(-c2nn3c(-c4ccccc4C)nnc3c3ccccc23)cc1	active: -3%
CN(C(=O)Cn1cc(S(=O)(=O)Cc2ccccc2Cl)c2ccccc21)c1ccccc1	inactive: 146%
CCOCCCNc1ncnc2onc(C)c12	inactive: 127%
Cc1ccc(Cl)cc1N1CCN(S(=O)(=O)c2ccc3c(c2)CC(C)N3C(=O)C2CCC2)CC1 (stereo not given)	inactive: 136%
Cc1cccc(NC(=O)Nc2nnc(N(C)Cc3ccccc3)s2)c1	inactive: 106%
CC(=O)c1ccc(NC(=O)c2sc(-n3nc(C)c(Cc4ccccc4)c3C)nc2C)cc1	inactive: 91%
CNC(=O)C1CC(=O)N(Cc2ccc(F)cc2)C(=Nc2ccc(F)cc2)S1 (stereo not given)	inactive: 111%
Cn1c(=O)c2c(ncn2CC(=O)Nc2cccc(Cl)c2Cl)n(C)c1=O	inactive: 84%
CCOC(=O)c1cnc(SCC)[nH]c1=O	inactive: 98%
COc1cccc(Cn2c(CNC(=O)c3cc([N+](=O)[O-])ccc3Cl)nc3cccnc32)c1	inactive: 128%
Cc1ccccc1C(=O)NC1(C(F)(F)F)C(=O)Nc2c1c(=O)[nH]c(=O)n2-c1ccc(F)cc1 (stereo not given)	inactive: 134%
CCN(Cc1ccccc1)Cc1c(O)ccc2c(=O)c(-c3ccc(Cl)cc3Cl)coc12	inactive: 87%
